Experimental data as given in publication PMC12820563, “FoxP3 forms a head-to-head dimer in vivo and stabilizes its multimerization on adjacent microsatellites”.
The list shows a part of the results.

These sequences were tested against T1, MBP-FoxP1dN (Mus musculus, UniProt P58462 326-579) (assay: PD-seq (MBP pull-down with sequencing); 20 mM Tris-HCl pH 7.5, 100 mM NaCl, 1.5 mM MgCl2, 0.4 uM protein, 0.1 uM dsDNA library, 30 min, room temperature, amylose pull-down; high values mean tight binding). Conditions: protein: recombinant; tags: His6-MBP; chain copies: 2; dsDNA, one strand shown.
T1 sequence: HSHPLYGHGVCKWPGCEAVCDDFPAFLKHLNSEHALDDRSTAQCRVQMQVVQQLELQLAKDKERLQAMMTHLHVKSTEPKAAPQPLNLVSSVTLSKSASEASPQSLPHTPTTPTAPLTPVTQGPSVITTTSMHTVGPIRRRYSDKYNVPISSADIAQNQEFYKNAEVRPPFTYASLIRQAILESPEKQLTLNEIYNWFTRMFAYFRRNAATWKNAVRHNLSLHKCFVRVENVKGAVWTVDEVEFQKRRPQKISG
How it was run: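 Binding is given as reads-per-million enrichment, pull-down over input, with replicates pooled. The bait was an N-terminus-lacking mouse FoxP3 or FoxP1 fragment with a His6-MBP tag, expressed in E. coli and used at 0.4 µM with 0.1 µM Klenow-filled degenerate double-stranded DNA library for 30 min at room temperature in Tris pH 7.5 buffer with NaCl and MgCl2. Amylose resin pull-down with three washes was followed by proteinase K release, PCR barcoding and Illumina sequencing.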
“GATGATTGTTCTCCCAGCTGATGAATTAATAAGGTCGAGTAAACAAATTTTCCTAATCTTTCTGTTCAAGCGCCATCTAC” was tested, and the binding signal was 0.941 RPM ratio (pull-down/input). “GATGATTGTTCTCCCAGCTGATGAATTGCTCGTTTCGAGTAAACAAATTTTCCTAATCTTTCTGTTCAAGCGCCATCTAC” was tested, and the binding signal was 0.932 RPM ratio (pull-down/input). In the case of “GATGATTGTTCTCCCAGCTGATGAATTGCATCTGTCGAGTAAACAAATTTTCCTAATCTTTCTGTTCAAGCGCCATCTAC”, the binding signal is reported as 1.51 RPM ratio (pull-down/input). “GATGATTGTTCTCCCAGCTGATGAATTTGAGGAGTCGAGTAAACAAATTTTCCTAATCTTTCTGTTCAAGCGCCATCTAC” was tested, and the binding signal was 0.805 RPM ratio (pull-down/input). In the case of “GATGATTGTTCTCCCAGCTGATGAATTCTCCTTCTCGAGTAAACAAATTTTCCTAATCTTTCTGTTCAAGCGCCATCTAC”, the binding signal is reported as 0.78 RPM ratio (pull-down/input). In the case of “GATGATTGTTCTCCCAGCTGATGAATTCAGACGATCGAGTAAACAAATTTTCCTAATCTTTCTGTTCAAGCGCCATCTAC”, the binding signal is reported as 0.763 RPM ratio (pull-down/input). For “GATGATTGTTCTCCCAGCTGATGAATTGAACCAGTCGAGTAAACAAATTTTCCTAATCTTTCTGTTCAAGCGCCATCTAC”, the binding signal was 0.814 RPM ratio (pull-down/input). “GATGATTGTTCTCCCAGCTGATGAATTCTAGCGTTCGAGTAAACAAATTTTCCTAATCTTTCTGTTCAAGCGCCATCTAC” was tested, and the binding signal was 0.969 RPM ratio (pull-down/input). With “GATGATTGTTCTCCCAGCTGATGAATTGGGTTGTTCGAGTAAACAAATTTTCCTAATCTTTCTGTTCAAGCGCCATCTAC” the binding signal was 1.07 RPM ratio (pull-down/input). In the case of “GATGATTGTTCTCCCAGCTGATGAATTAGGGGCCTCGAGTAAACAAATTTTCCTAATCTTTCTGTTCAAGCGCCATCTAC”, the binding signal is reported as 0.806 RPM ratio (pull-down/input). In the case of “GATGATTGTTCTCCCAGCTGATGAATTCAGTATCTCGAGTAAACAAATTTTCCTAATCTTTCTGTTCAAGCGCCATCTAC”, the binding signal is reported as 0.974 RPM ratio (pull-down/input). With “GATGATTGTTCTCCCAGCTGATGAATTGGCAGATTCGAGTAAACAAATTTTCCTAATCTTTCTGTTCAAGCGCCATCTAC” the binding signal was 0.9 RPM ratio (pull-down/input). “GATGATTGTTCTCCCAGCTGATGAATTTTCATTCTCGAGTAAACAAATTTTCCTAATCTTTCTGTTCAAGCGCCATCTAC” was tested, and the binding signal was 0.817 RPM ratio (pull-down/input). “GATGATTGTTCTCCCAGCTGATGAATTCGGTTTGTCGAGTAAACAAATTTTCCTAATCTTTCTGTTCAAGCGCCATCTAC” was tested, and the binding signal was 1.11 RPM ratio (pull-down/input). With “GATGATTGTTCTCCCAGCTGATGAATTGGTGTTATCGAGTAAACAAATTTTCCTAATCTTTCTGTTCAAGCGCCATCTAC” the binding signal was 1.9 RPM ratio (pull-down/input). With “GATGATTGTTCTCCCAGCTGATGAATTCCGACCATCGAGTAAACAAATTTTCCTAATCTTTCTGTTCAAGCGCCATCTAC” the binding signal was 0.869 RPM ratio (pull-down/input). In the case of “GATGATTGTTCTCCCAGCTGATGAATTACAGCTCTCGAGTAAACAAATTTTCCTAATCTTTCTGTTCAAGCGCCATCTAC”, the binding signal is reported as 0.893 RPM ratio (pull-down/input). “GATGATTGTTCTCCCAGCTGATGAATTTAATGGATCGAGTAAACAAATTTTCCTAATCTTTCTGTTCAAGCGCCATCTAC” was tested, and the binding signal was 0.919 RPM ratio (pull-down/input). For “GATGATTGTTCTCCCAGCTGATGAATTGTCTACTTCGAGTAAACAAATTTTCCTAATCTTTCTGTTCAAGCGCCATCTAC”, the binding signal was 1.13 RPM ratio (pull-down/input). In the case of “GATGATTGTTCTCCCAGCTGATGAATTATGTCTATCGAGTAAACAAATTTTCCTAATCTTTCTGTTCAAGCGCCATCTAC”, the binding signal is reported as 1.08 RPM ratio (pull-down/input). “GATGATTGTTCTCCCAGCTGATGAATTAAGCTAGTCGAGTAAACAAATTTTCCTAATCTTTCTGTTCAAGCGCCATCTAC” was tested, and the binding signal was 0.804 RPM ratio (pull-down/input). For “GATGATTGTTCTCCCAGCTGATGAATTACTTAGATCGAGTAAACAAATTTTCCTAATCTTTCTGTTCAAGCGCCATCTAC”, the binding signal was 1.17 RPM ratio (pull-down/input). “GATGATTGTTCTCCCAGCTGATGAATTAATTTGCTCGAGTAAACAAATTTTCCTAATCTTTCTGTTCAAGCGCCATCTAC” was tested, and the binding signal was 0.959 RPM ratio (pull-down/input). With “GATGATTGTTCTCCCAGCTGATGAATTGCTGGGGTCGAGTAAACAAATTTTCCTAATCTTTCTGTTCAAGCGCCATCTAC” the binding signal was 0.846 RPM ratio (pull-down/input). For “GATGATTGTTCTCCCAGCTGATGAATTATATTATTCGAGTAAACAAATTTTCCTAATCTTTCTGTTCAAGCGCCATCTAC”, the binding signal was 1.48 RPM ratio (pull-down/input). In the case of “GATGATTGTTCTCCCAGCTGATGAATTTTATACGTCGAGTAAACAAATTTTCCTAATCTTTCTGTTCAAGCGCCATCTAC”, the binding signal is reported as 0.957 RPM ratio (pull-down/input). In the case of “GATGATTGTTCTCCCAGCTGATGAATTCTCTGTTTCGAGTAAACAAATTTTCCTAATCTTTCTGTTCAAGCGCCATCTAC”, the binding signal is reported as 0.91 RPM ratio (pull-down/input). In the case of “GATGATTGTTCTCCCAGCTGATGAATTGTTCGATTCGAGTAAACAAATTTTCCTAATCTTTCTGTTCAAGCGCCATCTAC”, the binding signal is reported as 1.06 RPM ratio (pull-down/input). In the case of “GATGATTGTTCTCCCAGCTGATGAATTTGCCGGGTCGAGTAAACAAATTTTCCTAATCTTTCTGTTCAAGCGCCATCTAC”, the binding signal is reported as 0.784 RPM ratio (pull-down/input). For “GATGATTGTTCTCCCAGCTGATGAATTATCAATCTCGAGTAAACAAATTTTCCTAATCTTTCTGTTCAAGCGCCATCTAC”, the binding signal was 1.02 RPM ratio (pull-down/input). With “GATGATTGTTCTCCCAGCTGATGAATTCAAGTAGTCGAGTAAACAAATTTTCCTAATCTTTCTGTTCAAGCGCCATCTAC” the binding signal was 0.874 RPM ratio (pull-down/input).
